91 molecules from paper PMC4336329 (PLoS ONE, 2015) can be followed below.

Out of some 310,000 compounds screened, about 2,200 (0.71%) showed an effect of 50% or more. The effect is printed as a negative number. The list shows a part of the results.

The target in the assay is human ether-à-go-go-related gene (hERG) potassium channel (human, UniProt Q12809). Kind of assay: primary screen, population patch clamp on CHO cells stably expressing hERG.
Sequence of human ether-à-go-go-related gene (hERG) potassium channel (Q12809 whole entry, looked up): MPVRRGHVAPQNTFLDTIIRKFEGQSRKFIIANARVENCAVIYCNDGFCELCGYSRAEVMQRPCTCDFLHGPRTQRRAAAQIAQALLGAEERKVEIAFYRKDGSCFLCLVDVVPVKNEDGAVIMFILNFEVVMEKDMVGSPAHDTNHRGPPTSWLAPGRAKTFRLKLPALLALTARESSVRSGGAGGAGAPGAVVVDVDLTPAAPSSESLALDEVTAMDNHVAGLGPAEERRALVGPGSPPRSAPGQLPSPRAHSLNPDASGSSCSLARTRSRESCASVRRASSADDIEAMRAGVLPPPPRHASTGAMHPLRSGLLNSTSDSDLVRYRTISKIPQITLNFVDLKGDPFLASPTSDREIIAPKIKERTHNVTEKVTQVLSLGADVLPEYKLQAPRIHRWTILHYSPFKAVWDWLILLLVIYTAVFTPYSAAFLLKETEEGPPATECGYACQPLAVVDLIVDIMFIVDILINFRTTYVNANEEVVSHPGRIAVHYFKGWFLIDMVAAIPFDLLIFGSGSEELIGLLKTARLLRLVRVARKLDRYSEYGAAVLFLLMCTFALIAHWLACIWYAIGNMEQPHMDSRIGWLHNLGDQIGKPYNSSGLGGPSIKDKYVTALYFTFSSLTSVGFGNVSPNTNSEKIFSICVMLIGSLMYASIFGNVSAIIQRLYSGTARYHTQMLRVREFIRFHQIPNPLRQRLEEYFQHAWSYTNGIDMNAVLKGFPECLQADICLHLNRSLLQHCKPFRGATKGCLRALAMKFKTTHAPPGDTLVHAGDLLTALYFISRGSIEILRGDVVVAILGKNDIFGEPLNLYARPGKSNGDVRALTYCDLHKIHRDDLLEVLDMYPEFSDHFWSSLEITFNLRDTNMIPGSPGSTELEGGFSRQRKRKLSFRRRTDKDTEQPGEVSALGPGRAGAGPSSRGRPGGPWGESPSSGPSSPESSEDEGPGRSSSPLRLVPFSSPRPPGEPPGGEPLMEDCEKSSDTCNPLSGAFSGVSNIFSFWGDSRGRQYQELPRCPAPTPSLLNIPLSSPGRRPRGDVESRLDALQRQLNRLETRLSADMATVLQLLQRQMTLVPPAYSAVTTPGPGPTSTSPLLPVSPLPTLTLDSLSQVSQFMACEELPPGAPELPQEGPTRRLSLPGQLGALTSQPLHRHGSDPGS
`O=C(CC1C(=O)NCCN1Cc1cccc(F)c1)NC1CCC1` (stereo not shown): the “hERG current change (%, negative = inhibition) at 1uM” value is reported as -0.463%. `Cn1c(=O)c2[nH]c(N3CCN(c4ccccn4)CC3)nc2n(C)c1=O`: the “hERG current change (%, negative = inhibition) at 1uM” value worked out at 10%.

With `CCOCCCNS(=O)(=O)c1ccc2c(c1)CCN2C(=O)CC`, the “hERG current change (%, negative = inhibition) at 1uM” value was determined as 7.94%. On to `O=C(CCC(=O)Nc1ccccc1Cl)NNC(=O)NC1CCCCC1`, for which the “hERG current change (%, negative = inhibition) at 1uM” value is listed as -4.24%. To `CCOC(=O)N1CCN(C(=O)C2CCN(Cc3ccc(O)c(OCC)c3)CC2)CC1.O=C(O)C(=O)O` belongs 16.3%; to `Cc1nc2ccc(NS(=O)(=O)c3ccc(Br)cc3)cc2s1`, 8.87%; to `O=C(C[n+]1ccccc1)N/N=C/c1cc(Br)ccc1F.[Cl-]`, 5.46%.

For `CC(=O)Nc1cccc(NC(=O)C2CC3CCC2C3)c1` (stereo not shown), the “hERG current change (%, negative = inhibition) at 1uM” value is on record as -4.6%. In the case of `O=C1Nc2c(c(=O)[nH]c(=O)n2-c2ccc(F)cc2)C1(NS(=O)(=O)c1ccccc1)C(F)(F)F` (stereo not shown), the “hERG current change (%, negative = inhibition) at 1uM” value was 8.65%. To `CCOc1ccc(N(CC(=O)NCC2CCCO2)S(=O)(=O)c2ccc(OC)c(OC)c2)cc1` (stereo not shown) belongs 5.13%. As for `Nn1c(-c2ccc(F)cc2)nc2ccccc2c1=O`, the “hERG current change (%, negative = inhibition) at 1uM” value amounted to 15.2%. As for `CCOc1cc(/C=C2\SC(N3CCCCC3)=NC2=O)ccc1O`, the figure is 15.2%; as for `Cn1c(=O)n(CCCOc2ccc(Cl)cc2)c2ccccc21`, 4.97%; as for `COc1ccc(NC(=O)Nc2ccc3nc(C)c(C)nc3c2)cc1`, 12.7%. To `Cc1c(Cl)cccc1NC(=O)c1cc(S(=O)(=O)N2CCOCC2)cn1C` belongs 6.5%; to `COC(=O)CCSc1nc(N2CCOCC2)c2c(c1C#N)CC(C)(C)OC2`, 11.1%. As for `Cc1ccc(NC(=O)CSC2=Nc3ccccc3C3CC=NN23)c(C)c1` (stereo not shown), the “hERG current change (%, negative = inhibition) at 1uM” value stood at 3.86%. As for `CCNC(=O)COC(=O)CCC(=O)c1cccs1`, the figure is 3.16%. As for `Cc1cccc(N(CC(=O)NCCc2ccccc2)C(=O)CCC(=O)Nc2ccccn2)c1C`, the figure is 3.08%; as for `CCS(=O)(=O)N1Cc2ccccc2CC1C(=O)Nc1ccc(NC(C)=O)cc1` (stereo not shown), 12%. Consider `O=C(NCC1CCCO1)c1cn(Cc2ccccc2)nc1-c1ccc(Cl)cc1` (stereo not shown), for which the “hERG current change (%, negative = inhibition) at 1uM” value amounted to 15.2%. As for `COC(=O)c1c(NC(=O)CN2C(=O)C(=O)N(CC(C)C)C2=O)sc2c1CCCCC2`, the figure is 7.72%; as for `CN1CCN(Cc2c(C(=O)N3CCc4ccccc4C3)nc3ccc(Cl)cn23)CC1`, -13%; as for `COCCNC(=O)C1CCN(C(=O)C2CC(=O)N(c3ccc(C)cc3)C2)CC1` (stereo not shown), 10.2%.

On to `CCN(CC)c1ncnc2c1cnn2Cc1ccc(C)cc1`, for which the “hERG current change (%, negative = inhibition) at 1uM” value came out at 9.6%. Turning to `Cc1ccc(C)c(NC(=S)N2CCN(S(=O)(=O)c3ccccc3)CC2)c1`, the “hERG current change (%, negative = inhibition) at 1uM” value amounted to 15.2%.

On to `O=C(c1ccco1)N1N=C(c2ccc3nccnc3c2)CC1c1ccccc1` (stereo not shown), for which the “hERG current change (%, negative = inhibition) at 1uM” value is listed as -0.0178%. As for `Cc1cccc(/C=C2\CS/C(=C\c3cccc(C)c3)C2=O)c1`, the figure is 4.28%; as for `CCOC(=O)N1CCN(c2c(NCCOC)c(=O)c2=O)CC1`, 10.5%. As for `O=C(OCc1ccccc1)c1ccccc1`, the figure is 3.88%; as for `CCOc1ccc(C(Nc2ccc(C)cc2)P2(=O)OCCCO2)cc1` (stereo not shown), 4.44%.

On to `COc1ccc(/C=C/C(=O)NCCCc2ccccc2)cc1`, for which the “hERG current change (%, negative = inhibition) at 1uM” value worked out at 1.93%. To `CCc1c(C)nc(N)n2c(SCC(=O)Nc3ccccc3)nnc12` belongs 14.6%; to `CCC(C)NC(=O)c1cnn2c1NC(c1ccc3c(c1)OCO3)CC2C(F)(F)F` (stereo not shown), 0.913%; to `COc1ccc(C(=O)OCC(=O)NC2CC2)cc1S(=O)(=O)N(C)Cc1ccccc1`, -25.7%. To `CC1CCc2sc(C(=O)N/N=C/C3CCCCC3)cc2C1` (stereo not shown) belongs 8.03%; to `Cc1cccc(/C(N)=N/OC(=O)c2ccoc2C)c1`, 12.1%; to `COc1ccc(NC(=O)C(=O)NCC2CCCN2S(=O)(=O)c2cc(C)ccc2C)cc1` (stereo not shown), 10%. To `COc1ccccc1C(=O)NNC(=O)C1CC=CCC1` (stereo not shown) belongs 18.2%. For `O=C(NCCCC1CCCC1)C1CCC(=O)N(Cc2cccc(F)c2)C1` (stereo not shown), the “hERG current change (%, negative = inhibition) at 1uM” value was 8.85%. To `CCOC(=O)C1CCN(S(=O)(=O)c2ccc(C(=O)OC)cc2)CC1` belongs 2%; to `Cn1c(=O)n(C)c2cc(NC(=O)CSc3ccccc3)ccc21`, 23.4%; to `Cc1cc(=O)[nH]c(SCC(=O)NCc2ccco2)n1`, 16.6%. In the case of `COc1ccc(/C=C(\C#N)C(=O)NCc2cccs2)cc1OC`, the “hERG current change (%, negative = inhibition) at 1uM” value stood at 2.33%. As for `CC(C)(C)c1ccc(C(=O)N2CCN(c3ncccn3)CC2)cc1`, the figure is 6.17%; as for `COc1ccc(C)cc1NC(=O)NNC(=O)C(C)Oc1ccc([N+](=O)[O-])cc1` (stereo not shown), -6%; as for `Cn1c(SCC(=O)N/N=C/c2ccccn2)nnc1-c1ccccc1`, 12%. To `COC(=O)c1ccc(NC(=O)CNC(=O)C2CCCCC2)cc1` belongs 11%; to `Cn1c(=O)[nH]c(=O)c2c1nc(NCCCn1ccnc1)n2CCOc1ccccc1`, -1.2%. To `COc1ccccc1N(CC(=O)NCCSCc1ccccc1)S(C)(=O)=O` belongs 6.27%; to `O=C(NNC(=O)C1COc2ccccc2O1)c1cccc([N+](=O)[O-])c1` (stereo not shown), 15.3%; to `CCOC(=O)N1CCN(c2ccc(Cl)c(Cl)c2)CC1`, 2.62%. Turning to `COc1ccccc1NC(=S)NCc1ccccc1`, the “hERG current change (%, negative = inhibition) at 1uM” value turned out to be 9.89%. Consider `Cc1ccccc1NS(=O)(=O)c1ccc(C(=O)NCC(C)(C)N2CCOCC2)cc1`, for which the “hERG current change (%, negative = inhibition) at 1uM” value came to 5.35%. Take `COc1ccc2c(C=O)cn(C)c2c1`: the “hERG current change (%, negative = inhibition) at 1uM” value is reported as 15.5%. As for `CCN(CC)C(=O)CSc1nc2ccccc2c(=O)[nH]1`, the figure is 7.12%; as for `COc1cccc(CC2(CO)CCCN(Cc3cc(F)ccc3-n3cccn3)C2)c1` (stereo not shown), -85.1%; as for `Cc1n[nH]c(C)c1CCC(=O)N/N=C/C=C/c1ccccc1`, -10.3%. To `O=[N+]([O-])c1ccc2c(c1)C(O)n1ncnc1S2` (stereo not shown) belongs 9.82%; to `O=[N+]([O-])c1cccc(-c2c(-c3ccccc3)ncc3cc(F)ccc23)c1`, 8.37%; to `COc1cc(CN2CCNC(=O)C2CC(=O)N(C)Cc2cccnc2)cc(OC)c1` (stereo not shown), 8.67%. On to `COc1ccc(N2CCN(c3nc(C)c(C)c(=O)[nH]3)CC2)cc1`, for which the “hERG current change (%, negative = inhibition) at 1uM” value was found to be 14%. `COc1ccc(CCNC(=O)Cn2nnc(-c3ccc(OC)c(OC)c3)n2)cc1OC`: the “hERG current change (%, negative = inhibition) at 1uM” value is -0.964%.

On to `C=C1CCC(N(O)c2cc(C)on2)C(=C)CCC2C1CC2(C)C` (stereo not shown), for which the “hERG current change (%, negative = inhibition) at 1uM” value worked out at 11.2%.

In the case of `CCOC(=O)CSc1nc(N(C)C)nc(N(C)C#N)n1`, the “hERG current change (%, negative = inhibition) at 1uM” value is 3.15%. On to `Cc1nc(C)c(CC(=O)N/N=C/c2ccc(O)cc2)c(=O)[nH]1`, for which the “hERG current change (%, negative = inhibition) at 1uM” value turned out to be 11.3%.

Consider `O=C(NCc1ccco1)Nc1ccc([N+](=O)[O-])cc1`, for which the “hERG current change (%, negative = inhibition) at 1uM” value was -2.06%. To `OC(COc1ccc(CN2CCCCO2)cc1)CN1CCCCC1` (stereo not shown) belongs 9.02%; to `CCOP(=O)(OCC)c1cc(CC)ccc1O`, 9.92%. For `COc1ccc2oc(C)c(NC(C)=O)c2c1`, the “hERG current change (%, negative = inhibition) at 1uM” value was 5.96%. Regarding `CCN=C1SC(C(=O)Nc2cccc(C)c2)CC(=O)N1CC` (stereo not shown), the “hERG current change (%, negative = inhibition) at 1uM” value is -8.59%. To `COc1ccc(CCNC(=O)CSc2nc(N)c3c(C)c(C)oc3n2)cc1OC` belongs 11.9%. Regarding `O=C(NC(=S)Nc1ccccc1N1CCCC1)c1cccc(F)c1`, the “hERG current change (%, negative = inhibition) at 1uM” value is -0.071%. For the molecule `CCOC(=O)/C=C/c1ccc(C(F)(F)F)cc1S(=O)(=O)NC(C)(C)C`, the “hERG current change (%, negative = inhibition) at 1uM” value was -0.159%. To `O=C(NC1CCCCCC1)C1CCN(c2nc3ccccc3o2)CC1` belongs 6.91%; to `Cc1nnc(SCc2cc(=O)[nH]c(N3CCN(Cc4ccccc4)CC3)n2)s1`, 4.26%. As for `Cc1cccc(C)c1NC(=O)C1CCCN1S(=O)(=O)c1ccc(-c2ccc(=O)[nH]n2)s1` (stereo not shown), the “hERG current change (%, negative = inhibition) at 1uM” value is -30.7%. To `COc1ccc(CCNC(=O)c2cnc(C)cn2)cc1` belongs 17%.

For the molecule `COc1cc(C(=O)Nc2ccc3nc(N4CCN(C)CC4)cc(C)c3c2)cc(OC)c1OC`, the “hERG current change (%, negative = inhibition) at 1uM” value is reported as -5.28%. On to `CN(NC(=O)NN)c1ncc(C(F)(F)F)cc1Cl`, for which the “hERG current change (%, negative = inhibition) at 1uM” value worked out at 1.54%. As for `Br.COc1ccc(OCC(=O)NN2Cc3ccccc3C2=N)cc1`, the figure is 3.25%; as for `CCN(C(=O)COC(=O)CNS(=O)(=O)c1ccc(SC)c([N+](=O)[O-])c1)C1CCCCC1`, 15.5%. `O=Cc1ccc(OCc2nnsc2Cl)cc1`: the “hERG current change (%, negative = inhibition) at 1uM” value is given as 15.3%. To `COc1ccc(C2(c3ccc(O)cc3O)CC(c3ccccc3Cl)NC(=S)N2)cc1` (stereo not shown) belongs 11.5%.

In the case of `COc1ccccc1NC(=O)N1CCN(CCc2ccccc2)CC1`, the “hERG current change (%, negative = inhibition) at 1uM” value was found to be 0.333%.

Turning to `COc1ccc(OC)c(Nc2nc(N)c([N+](=O)[O-])c(NC3CCCCC3)n2)c1`, the “hERG current change (%, negative = inhibition) at 1uM” value is reported as 7.2%.

Regarding `COc1ccc(C(=O)C[n+]2ccc(N)c(C)c2C)cc1.[Br-]`, the “hERG current change (%, negative = inhibition) at 1uM” value is recorded as 16.1%. As for `COc1ccc(Cl)cc1C(=O)Nc1ccc(S(=O)(=O)N2CCCC2)cc1`, the figure is 17.4%. To `CC(C)Oc1ccc(C2CC(=O)N(c3cccc(Br)c3)C2=O)cc1` (stereo not shown) belongs 19.5%; to `CCOC(=O)COc1ccc2c(=O)c(-c3ccccc3OC)coc2c1`, 14.9%. For the molecule `Cc1cc(=O)n(C)c(=O)n1CCCNc1ccccc1.O=C(O)C(=O)O`, the “hERG current change (%, negative = inhibition) at 1uM” value is recorded as 0.128%.
